Data from the supplement of paper PMC3334620.
In all, about 33,000 sequences were measured (“E-score (-0.5 to 0.5)”: median about -0.021, highest 2% from about 0.32 on). This is one part of the list.

The sequences below were run against T1, Zap1 (UniProt P47043) (assay: PBM E-score (8-mer binding enrichment) (E-score (-0.5 to 0.5)); higher = stronger / more preferred TF binding; most listed sequences are background and not binding sites). Conditions: protein concentration: 200 nM; construct: GST-full length.
T1 sequence: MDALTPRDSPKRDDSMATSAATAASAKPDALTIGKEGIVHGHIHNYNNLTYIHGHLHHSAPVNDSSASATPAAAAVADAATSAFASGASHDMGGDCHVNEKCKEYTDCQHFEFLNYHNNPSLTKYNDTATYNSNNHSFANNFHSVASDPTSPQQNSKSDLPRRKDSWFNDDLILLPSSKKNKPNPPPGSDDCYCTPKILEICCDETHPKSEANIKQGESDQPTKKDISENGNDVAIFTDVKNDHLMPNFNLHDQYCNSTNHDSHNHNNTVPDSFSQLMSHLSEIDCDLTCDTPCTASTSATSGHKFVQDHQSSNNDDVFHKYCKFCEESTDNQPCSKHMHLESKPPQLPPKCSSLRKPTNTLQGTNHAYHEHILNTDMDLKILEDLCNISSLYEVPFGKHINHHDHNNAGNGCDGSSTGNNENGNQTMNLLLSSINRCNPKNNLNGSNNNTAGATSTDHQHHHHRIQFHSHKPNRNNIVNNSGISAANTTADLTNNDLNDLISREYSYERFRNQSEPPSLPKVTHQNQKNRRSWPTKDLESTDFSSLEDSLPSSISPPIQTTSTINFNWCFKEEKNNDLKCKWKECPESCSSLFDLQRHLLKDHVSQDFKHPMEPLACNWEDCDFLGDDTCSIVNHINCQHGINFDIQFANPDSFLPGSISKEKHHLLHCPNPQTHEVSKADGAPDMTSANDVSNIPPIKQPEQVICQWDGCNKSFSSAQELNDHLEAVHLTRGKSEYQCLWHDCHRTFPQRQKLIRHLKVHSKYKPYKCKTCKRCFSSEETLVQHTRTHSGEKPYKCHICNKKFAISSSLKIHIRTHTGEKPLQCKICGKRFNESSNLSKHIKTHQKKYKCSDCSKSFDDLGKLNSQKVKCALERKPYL
Procedure: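 Universal 'all 10-mer' protein binding microarrays (Agilent AMADID 015681) probed with GST-tagged S. cerevisiae TFs (full-length or DBD) made by in vitro transcription/translation (PURExpress), about 100-200 nM. Bound TF was detected with fluorescent anti-GST. Each ungapped 8-mer (which stands for itself and its reverse complement) is scored by the PBM enrichment score (E-score), a modified Wilcoxon-Mann-Whitney statistic from -0.5 to +0.5, computed with the Universal PBM Analysis Suite. Scale: above 0.35 generally sequence-specific binding.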
In the case of AAGGCTAG, the “PBM E-score” value is reported as -0.0741.
CGTTGGCC was tested, and the “PBM E-score” value was -0.138.
With ACCCTGTA the “PBM E-score” value was 0.353.
In the case of TCGGGGAA, the “PBM E-score” value is reported as 0.103.
CCCACGAC was tested, and the “PBM E-score” value was -0.0686.
For CGGGTTAG, the “PBM E-score” value was 0.0706.
In the case of AATTGAGC, the “PBM E-score” value is reported as -0.172.
In the case of CCAACTCC, the “PBM E-score” value is reported as 0.0711.
For GGGAACAA, the “PBM E-score” value was -0.0417.
CTATTGGC was tested, and the “PBM E-score” value was -0.193.
For CGAGGGAA, the “PBM E-score” value was 0.00282.
For GAGTGAGC, the “PBM E-score” value was -0.193.
In the case of AGTCCGCG, the “PBM E-score” value is reported as -0.0509.
In the case of AAGGTCAG, the “PBM E-score” value is reported as 0.32.
GCGGAGCA was tested, and the “PBM E-score” value was -0.249.
In the case of AAGCACTC, the “PBM E-score” value is reported as -0.146.
With ACTCGTCT the “PBM E-score” value was 0.0828.
With AATTTCAC the “PBM E-score” value was 0.0163.
With ACATCTTA the “PBM E-score” value was 0.0426.
CGCATAGC was tested, and the “PBM E-score” value was -0.28.
In the case of ACACTGTC, the “PBM E-score” value is reported as -0.051.
In the case of ACGAAGAT, the “PBM E-score” value is reported as -0.105.
With CCTACACG the “PBM E-score” value was -0.103.
CCTTGCGC was tested, and the “PBM E-score” value was -0.0353.
With ACAGCAGA the “PBM E-score” value was 0.0639.
CCAAAGGG was tested, and the “PBM E-score” value was 0.267.
In the case of GGACATCC, the “PBM E-score” value is reported as -0.048.
With GCTTCCCA the “PBM E-score” value was -0.342.
With CTATCAAC the “PBM E-score” value was 0.0502.
TTAATGAA was tested, and the “PBM E-score” value was 0.187.
In the case of CTATGCTA, the “PBM E-score” value is reported as 0.0289.
For ATATCGAT, the “PBM E-score” value was 0.0694.
AAAGCTTC was tested, and the “PBM E-score” value was -0.0032.
In the case of ATGTTGAC, the “PBM E-score” value is reported as 0.0368.
For GAGTCTAC, the “PBM E-score” value was -0.229.
For CAGGGGGA, the “PBM E-score” value was -0.394.
In the case of CAGTGCAA, the “PBM E-score” value is reported as -0.0222.
In the case of GTTTCTAA, the “PBM E-score” value is reported as 0.138.
In the case of CAAATTTG, the “PBM E-score” value is reported as 0.109.
In the case of TACACCCA, the “PBM E-score” value is reported as 0.0798.
With GGCGTTTA the “PBM E-score” value was -0.238.
For GTTTACTA, the “PBM E-score” value was 0.135.
With GTTGACGA the “PBM E-score” value was -0.038.
In the case of CACCATAC, the “PBM E-score” value is reported as 0.0636.
ATAAATTA was tested, and the “PBM E-score” value was 0.197.
In the case of ACCAGTCA, the “PBM E-score” value is reported as 0.0553.
CCAATCCC was tested, and the “PBM E-score” value was -0.116.
With CAACTCTC the “PBM E-score” value was -0.119.
With CGTATGTC the “PBM E-score” value was -0.0622.
With ACTATCTC the “PBM E-score” value was -0.129.
AAGTTAAC was tested, and the “PBM E-score” value was 0.247.
AAATTGCA was tested, and the “PBM E-score” value was 0.0924.
With ATTGAGTC the “PBM E-score” value was 0.00193.
With AGTTGTCC the “PBM E-score” value was 0.132.
In the case of GTCTACGA, the “PBM E-score” value is reported as -0.232.
GTCTAACA was tested, and the “PBM E-score” value was -0.0364.
With CGGAACGA the “PBM E-score” value was 0.112.
In the case of AGGACAAA, the “PBM E-score” value is reported as 0.0742.
For GCGCGATA, the “PBM E-score” value was 0.0497.
With TGCAGAAA the “PBM E-score” value was 0.0908.
AAACCGCA was tested, and the “PBM E-score” value was 0.0339.
In the case of GACCCTGA, the “PBM E-score” value is reported as 0.304.
TCGGGACA was tested, and the “PBM E-score” value was -0.139.
With AGTAGGTG the “PBM E-score” value was 0.0464.
For CATCTATC, the “PBM E-score” value was -0.131.
For CACGTTCA, the “PBM E-score” value was -0.127.
With CCCGGTTC the “PBM E-score” value was -0.0485.
CCGGCTTA was tested, and the “PBM E-score” value was 0.0901.
AAACCCGT was tested, and the “PBM E-score” value was 0.0781.
With CCCTACAG the “PBM E-score” value was 0.046.
GATTCAGA was tested, and the “PBM E-score” value was -0.0457.
With ATCTTCAC the “PBM E-score” value was 0.0626.
In the case of ACGCTTCA, the “PBM E-score” value is reported as -0.268.
For ACATATGT, the “PBM E-score” value was -0.329.
For AGCTCCCC, the “PBM E-score” value was -0.306.
CGATCTGA was tested, and the “PBM E-score” value was -0.0395.
For ACAGCGGC, the “PBM E-score” value was -0.148.
ACGGTGTC was tested, and the “PBM E-score” value was -0.00272.
With GACCGCTC the “PBM E-score” value was -0.0268.
For CTCTCCAG, the “PBM E-score” value was -0.256.
With GAGAATTA the “PBM E-score” value was -0.0541.
With ACCTCCGG the “PBM E-score” value was 0.228.
AGAATCCA was tested, and the “PBM E-score” value was 0.0671.
GTATGTTA was tested, and the “PBM E-score” value was 0.181.
For AAGATATT, the “PBM E-score” value was 0.0386.
For GATTAGTA, the “PBM E-score” value was -0.0306.
In the case of CGACTCGC, the “PBM E-score” value is reported as -0.219.
In the case of GATTAATA, the “PBM E-score” value is reported as 0.175.
For TAAAACAA, the “PBM E-score” value was 0.0846.
For GGGGAATA, the “PBM E-score” value was -0.138.
In the case of ATAACGAC, the “PBM E-score” value is reported as 0.0214.
ACCAGACC was tested, and the “PBM E-score” value was 0.201.
For CCAACGAC, the “PBM E-score” value was -0.154.
In the case of GTCTCAGA, the “PBM E-score” value is reported as -0.0264.
For CGATAAAC, the “PBM E-score” value was -0.102.
With GTACCGTA the “PBM E-score” value was 0.276.
GGAAAACA was tested, and the “PBM E-score” value was -0.0302.
In the case of GATTGGGC, the “PBM E-score” value is reported as -0.0408.
For CTCTATCA, the “PBM E-score” value was -0.109.
For ACTGACCT, the “PBM E-score” value was 0.127.
For CAAACGTA, the “PBM E-score” value was -0.0398.
For AGGCTACC, the “PBM E-score” value was 0.161.
CAGTACGG was tested, and the “PBM E-score” value was -0.047.
With ATGTTTTG the “PBM E-score” value was 0.0598.
For GCTTGCCC, the “PBM E-score” value was -0.293.
GCGTCAGC was tested, and the “PBM E-score” value was -0.14.
For CGCTATAC, the “PBM E-score” value was -0.169.
AAAGCAAT was tested, and the “PBM E-score” value was 0.18.
In the case of AACACAAC, the “PBM E-score” value is reported as 0.193.
